The test deals with 26 HLA class II molecules (HLA DRB1, DRB3/4/5, DP and DQ allelic variants). Nature of the test: Competition binding of peptides to purified HLA class II molecules (inhibition of a radiolabeled peptide). Particulars: binding = IC50 of 1000 nM or better; for Number of HLA class II alleles bound (of 26 tested): radiolabeled peptide competition, two-day incubation, three or more independent experiments.

In the case of QLLDRGATALVLQVLNVPRLMTQD [Peptide 14], the “HLA class II alleles bound with an affinity of 1000 nM or better (of 26 tested)” value is listed as 69% and the “Number of HLA class II alleles bound (of 26 tested)” value is on record as 18.
With “Truncated 15-mer Exendin-4 (16–30): Truncated 15-mer of exendin-4, residues 16–30, non-acylated (EEAVRLFIEWLKNGG; Exendin-4; UniProt P26349 63-77, looked up, fragment)”, the “Number of HLA class II alleles bound (of 26 tested)” value turned out to be 7.

(Values after PMC5951580, “The effect of acylation with fatty acids and other modifications on HLA class II:peptide binding and T cell stimulation for three model peptides” (PLoS ONE, 2018).)
